The record followed here is the supplement of paper PMC12217912.

Sequences and labels used below:
B1: TEV protease; numbered along this chain (parent)
chain: MGESLFKGPRDYNPISSSICHLTNESDGHTTSLYGIGFGPFIITNKHLFRRNNGTLVVQSLHGVFKVKDTTTLQQHLVDGRDMIIIRMPKDFPPFPQKLKFREPQREERICLVTTNFQTKSMSSMVSDTSCTFPSGDGIFWKHWIQTKDGQCGSPLVSTRDGFIVGIHSASNFTNTNNYFTSVPKNFMELLTNQEAQQWVSGWRLNADSVLWGGHKVFMVKPEEPFQPVKEATQL

In this experiment the parent is B1. Description: raw area under fraction-flipped curve 0-4 h after induction (AUC4h, not background-subtracted), DNA-recorder readout of cleavage of the substrate (dimensionless); higher = more cleavage of the substrate by the protease variant. As to conditions: temperature: 34 °C; time window: 0-4 h after rhamnose induction. Here is the method:
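In vivo DNA recorder in E. coli TOP10(DE3) ΔrhaA at 34 °C. Each TEVp single-site mutant (parent TEVp 0) is paired with a single-site variant of the 7-mer TEVs (canonical ENLYFQ|S). The substrate sits between flexible linkers in a Bxb1-sfGFP-TEVs-SsrA fusion, so cleavage stabilises Bxb1 and speeds flipping of a recombination array, read by NGS. The value is the raw area under the fraction-flipped curve over 0-4 h after rhamnose induction (AUC4h), with ≥20 reads per time point. It is not background-subtracted; inactive controls average about 0.047.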

This is one part of the list. Sequences were assembled here from the parent chain. Inactive controls read about 0.05.
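Note: Bxb1 expression induced with 0.2% (w/v) L-rhamnose at OD600 near 0.5, cultures sampled hourly, flipped fraction per protease–substrate barcode pair counted by paired-end Illumina sequencing.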

On to MGESLFKGPRDYNPISSSICHLTNESDGHTTSLYGIGFGPFIITNKHLFRRNNGTLVVQSLHGVFKVKDTTTLQQHLVDGRDMIIIRMPKDFPPFPQKLKFREPQREERICLVTTNFQTKSMSSMVSDTSCTFPSGDGIFWKHWIQTKDGQCGSPLVSTADGFIVGIHSASNFTNTNNYFTSVPKNFMELLTNQEAQQWVSGWRLNADSVLWGGHKVFMVKPEEPFQPVKEATQL [R160A], for which the “area with substrate ENLAFQS” value was 0.0625, the “area with substrate ENLDFQS” value amounted to 0.0735, the “area with substrate ENLEFQS” value was determined as 0.109 and the “area with substrate ENLFFQS” value was found to be 0.0835. Further, the “area with substrate ENLHFQS” value worked out at 0.0774, the “area with substrate ENLIFQS” value is 0.0755, the “area with substrate ENLKFQS” value worked out at 0.0772 and the “area with substrate ENLMFQS” value turned out to be 0.0713. For the same variant, the “area with substrate ENLNFQS” value worked out at 0.0531, the “area with substrate ENLPFQS” value amounted to 0.0506, the “area with substrate ENLRFQS” value was 0.0829 and the “area with substrate ENLSFQS” value stood at 0.0531. Besides, the “area with substrate ENLVFQS” value is 0.0928.

Take MGESLFKGPRDYNPISSSICHLTNESDGHTTSLYGIGFGPFIITNKHLFRRNNGTLVVQSLHGVFKVKDTTTLQQHLVDGRDMIIIRMPKDFPPFPQKLKFREPQREERICLVTTNFQTKSMSSMVSDTSCTFPSGDGIFWKHWIQTKDGQCGSPLVSTRDGFIVGIHCASNFTNTNNYFTSVPKNFMELLTNQEAQQWVSGWRLNADSVLWGGHKVFMVKPEEPFQPVKEATQL [S169C]: the “area with substrate ENLAFQS” value worked out at 0.0522, the “area with substrate ENLCFQS” value was 0.0729, the “area with substrate ENLDFQS” value is 0.0644 and the “area with substrate ENLEFQS” value was determined as 0.0637. In addition, the “area with substrate ENLFFQS” value worked out at 0.0762, the “area with substrate ENLHFQS” value came out at 0.0688, the “area with substrate ENLIFQS” value amounted to 0.0672 and the “area with substrate ENLKFQS” value was determined as 0.0528. The “area with substrate ENLLFQS” value came to 0.0801, the “area with substrate ENLNFQS” value stood at 0.0649, the “area with substrate ENLPFQS” value is 0.0733 and the “area with substrate ENLRFQS” value was 0.0722. In addition, the “area with substrate ENLSFQS” value is 0.065, the “area with substrate ENLTFQS” value came out at 0.0485, the “area with substrate ENLVFQS” value was determined as 0.0874 and the “area with substrate ENLWFQS” value was found to be 0.0518.

In the case of MGESLFKGPRDYNPISSSICHLTNESDGHTTSLYGIGFGPFIITNKHLFRRNNGTLVVQSLHGVFKVKDTTTLQQHLVDGRDMIIIRMPKDFPPFPQKLKFREPQREERICLVTTNFQTKSMSSMVSDTSCTFPSGDGIFWKHWIQTKDGQCGSPLVSTRDGFIVGIHNASNFTNTNNYFTSVPKNFMELLTNQEAQQWVSGWRLNADSVLWGGHKVFMVKPEEPFQPVKEATQL [S169N], the “area with substrate ENLAFQS” value is 0.0474, the “area with substrate ENLCFQS” value turned out to be 0.0597, the “area with substrate ENLDFQS” value came out at 0.058 and the “area with substrate ENLEFQS” value amounted to 0.0414. The “area with substrate ENLFFQS” value is 0.0824, the “area with substrate ENLHFQS” value is 0.0582, the “area with substrate ENLIFQS” value is 0.0634 and the “area with substrate ENLKFQS” value worked out at 0.0588. Besides, the “area with substrate ENLLFQS” value was 0.0519, the “area with substrate ENLMFQS” value worked out at 0.0623, the “area with substrate ENLNFQS” value was found to be 0.0666 and the “area with substrate ENLPFQS” value is 0.0451. Also, the “area with substrate ENLQFQS” value was determined as 0.0498, the “area with substrate ENLRFQS” value stood at 0.0601, the “area with substrate ENLSFQS” value is 0.0607 and the “area with substrate ENLVFQS” value stood at 0.0629. In addition, the “area with substrate ENLWFQS” value stood at 0.0627.

With MGESLFKGPRDYNPISSSICHLTNESDGHTTSLYGIGFGPFIITNKHLFRRNNGTLVVQSLHGVFKVKDTTTLQQHLVDGRDMIIIRMPKDFPPFPQKLKFREPQREERICLVTTNFQTKSMSSMVSDTSCTFPSGDGIFWKHWIQTKDGQCGSPLVSTRDGFIVSIHSASNFTNTNNYFTSVPKNFMELLTNQEAQQWVSGWRLNADSVLWGGHKVFMVKPEEPFQPVKEATQL [G166S], the “area with substrate ENLAFQS” value is 0.0498, the “area with substrate ENLCFQS” value was 0.0383, the “area with substrate ENLEFQS” value was determined as 0.0548 and the “area with substrate ENLFFQS” value is 0.0651. For the same variant, the “area with substrate ENLHFQS” value is 0.0533, the “area with substrate ENLKFQS” value came out at 0.0569, the “area with substrate ENLLFQS” value is 0.0569 and the “area with substrate ENLMFQS” value turned out to be 0.0499. Further, the “area with substrate ENLNFQS” value is 0.0553, the “area with substrate ENLPFQS” value worked out at 0.0559, the “area with substrate ENLQFQS” value was determined as 0.0495 and the “area with substrate ENLSFQS” value was determined as 0.0411. Further, the “area with substrate ENLWFQS” value was found to be 0.0459.

For MGESLFKGPRDYNPISSSICHLTNESDGHTTSLYGIGFGPFIITNKHLFRRNNGTLVVQSLHGVFKVKDTTTLQQHLVDGRDMIIIRMPKDFPPFPQKLKFREPQREERICLVTTNFQTKSMSSMVSDTSCTFPSGDGIFWKHWIQTKDGQCGSPLVSTRDGFIVQIHSASNFTNTNNYFTSVPKNFMELLTNQEAQQWVSGWRLNADSVLWGGHKVFMVKPEEPFQPVKEATQL [G166Q], the “area with substrate ENLAFQS” value turned out to be 0.0431, the “area with substrate ENLCFQS” value was 0.0442, the “area with substrate ENLDFQS” value came out at 0.0619 and the “area with substrate ENLEFQS” value amounted to 0.047. In addition, the “area with substrate ENLFFQS” value came to 0.058, the “area with substrate ENLHFQS” value is 0.0451, the “area with substrate ENLKFQS” value turned out to be 0.0528 and the “area with substrate ENLNFQS” value amounted to 0.0529. Also, the “area with substrate ENLPFQS” value was 0.0625 and the “area with substrate ENLSFQS” value is 0.051.

Take MGESLFKGPRDYNPISSSICHLTNESDGHTTSLYGIGFGPFIITNKHLFRRNNGTLVVQSLHGVFKVKDTTTLQQHLVDGRDMIIIRMPKDFPPFPQKLKFREPQREERICLVTTNFQTKSMSSMVSDTSCTFPSGDGIFWKHWIQTKDGQCGSPLVSERDGFIVGIHSASNFTNTNNYFTSVPKNFMELLTNQEAQQWVSGWRLNADSVLWGGHKVFMVKPEEPFQPVKEATQL [T159E]: the “area with substrate ENLAFQS” value came to 0.0724, the “area with substrate ENLEFQS” value is 0.0652, the “area with substrate ENLFFQS” value was 0.111 and the “area with substrate ENLIFQS” value stood at 0.085. For the same variant, the “area with substrate ENLKFQS” value stood at 0.0837, the “area with substrate ENLNFQS” value worked out at 0.0574, the “area with substrate ENLPFQS” value was determined as 0.0548 and the “area with substrate ENLQFQS” value turned out to be 0.0544. Further, the “area with substrate ENLRFQS” value is 0.0804, the “area with substrate ENLSFQS” value was 0.0674 and the “area with substrate ENLVFQS” value stood at 0.068.

With MGESLFKGPRDYNPISSSICHLTNESDGHTTSLYGIGFGPFIITNKHLFRRNNGTLVVQSLHGVFKVKDTTTLQQHLVDGRDMIIIRMPKDFPPFPQKLKFREPQREERICLVTTNFQTKSMSSMVSDTSCTFPSGDGIFWKHWIQTKDGQCGSPLVSTRDGFHVGIHSASNFTNTNNYFTSVPKNFMELLTNQEAQQWVSGWRLNADSVLWGGHKVFMVKPEEPFQPVKEATQL [I164H], the “area with substrate ENLAFQS” value came out at 0.0631, the “area with substrate ENLCFQS” value stood at 0.0534, the “area with substrate ENLDFQS” value was found to be 0.0036 and the “area with substrate ENLEFQS” value stood at 0.0517. Moreover, the “area with substrate ENLFFQS” value stood at 0.0491, the “area with substrate ENLHFQS” value was determined as 0.0545, the “area with substrate ENLIFQS” value is 0.0554 and the “area with substrate ENLKFQS” value worked out at 0.0505. Moreover, the “area with substrate ENLLFQS” value worked out at 0.0667, the “area with substrate ENLNFQS” value was 0.0551, the “area with substrate ENLQFQS” value is 0.0548 and the “area with substrate ENLSFQS” value was determined as 0.0497. The “area with substrate ENLVFQS” value was found to be 0.0538.

Regarding MGESLFKGPRDYNPISSSICHLTNESDGHTTSLYGIGFGPFIITNKHLFRRNNGTLVVQSLHGVFKVKDTTTLQQHLVDGRDMIIIRMPKDFPPFPQKLKFREPQREERICLVTTNFQTKSMSSMVSDTSCTFPSGDGIFWKHWIQTKDGQCGSPLVSTRDGFIDGIHSASNFTNTNNYFTSVPKNFMELLTNQEAQQWVSGWRLNADSVLWGGHKVFMVKPEEPFQPVKEATQL [V165D], the “area with substrate ENLAFQS” value was 0.0549, the “area with substrate ENLDFQS” value was found to be 0.0516, the “area with substrate ENLIFQS” value was 0.0654 and the “area with substrate ENLKFQS” value came out at 0.0694. For the same variant, the “area with substrate ENLLFQS” value is 0.0372, the “area with substrate ENLNFQS” value was 0.0567, the “area with substrate ENLPFQS” value came out at 0.0435 and the “area with substrate ENLQFQS” value came out at 0.0402. For the same variant, the “area with substrate ENLRFQS” value is 0.0554, the “area with substrate ENLTFQS” value was determined as 0.0591 and the “area with substrate ENLVFQS” value came to 0.0423.

MGESLFKGPRDYNPISSSICHLTNESDGHTTSLYGIGFGPFIITNKHLFRRNNGTLVVQSLHGVFKVKDTTTLQQHLVDGRDMIIIRMPKDFPPFPQKLKFREPQREERICLVTTNFQTKSMSSMVSDTSCTFPSGDGIFWKHWIQTKDGQCGSPLVSTRDGFIVGFHSASNFTNTNNYFTSVPKNFMELLTNQEAQQWVSGWRLNADSVLWGGHKVFMVKPEEPFQPVKEATQL [I167F]: the “area with substrate ENLAFQS” value turned out to be 0.0601, the “area with substrate ENLCFQS” value was 0.061, the “area with substrate ENLDFQS” value is 0.0568 and the “area with substrate ENLEFQS” value was found to be 0.063. Also, the “area with substrate ENLFFQS” value came out at 0.0642, the “area with substrate ENLHFQS” value stood at 0.067, the “area with substrate ENLIFQS” value came to 0.0568 and the “area with substrate ENLKFQS” value turned out to be 0.0577. In addition, the “area with substrate ENLLFQS” value turned out to be 0.0609, the “area with substrate ENLMFQS” value is 0.0612, the “area with substrate ENLNFQS” value stood at 0.0595 and the “area with substrate ENLPFQS” value was found to be 0.0662. Further, the “area with substrate ENLQFQS” value was found to be 0.0494, the “area with substrate ENLRFQS” value is 0.0707, the “area with substrate ENLSFQS” value stood at 0.0602 and the “area with substrate ENLVFQS” value was determined as 0.055. Besides, the “area with substrate ENLWFQS” value came out at 0.0601.
